Reference: the supplement of paper PMC3334620
The full ranking holds about 33,000 sequences; the median of “E-score (-0.5 to 0.5)” is about -0.056, and the highest 2% start at about 0.38. The list shows a part of the results.

molecular target: Stb4 (UniProt P50104); assay: PBM E-score (8-mer binding enrichment) (E-score (-0.5 to 0.5)); higher = stronger / more preferred TF binding; most listed sequences are background and not binding sites; settings: protein concentration: 200 nM; construct: GST-DNA-binding domain
Method in brief: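 Universal all-10-mer Agilent arrays, double-stranded by primer extension on fresh or once-stripped slides, were probed with about 100-200 nM GST-tagged yeast transcription factors made by PURExpress. Fluorescent anti-GST detected bound protein, and masliner normalised the scans. E-scores from the Universal PBM Analysis Suite were given to each ungapped eight-base word pooled with its reverse complement.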

Sequence | PBM E-score
AGACGCTA | -0.187
AATGGCAA | -0.0786
ATATTAGC | -0.112
ATAGCGGC | 0.0624
AGGTCACG | -0.136
GGTAGGAC | 0.0564
CCTAGCAC | 0.00176
AATGACAC | -0.172
TAAGATTA | -0.0475
CTCGACGC | -0.03
CCATCTAC | -0.0683
CCAGATGG | -0.245
CGGAAATC | 0.366
ACGTTCAC | -0.132
CTGTACAC | -0.2
ACTATAGC | -0.034
GGCTCAAA | 0.151
CCAACCTC | -0.0741
ACTCGCCC | 0.0517
CTTGGCGA | -0.24
AAGAGCTA | -0.27
AGACCAAC | -0.164
CAAGGATG | -0.0612
GCGATCAC | -0.0916
AAAAATAT | 0.168

Sequence | PBM E-score
ACCATCGA | -0.304
GTCAGCAA | -0.154
AGCCATTA | 0.0954
ACACGTTC | -0.107
TGACATCA | -0.106
AAGAAACC | 0.06
TAATTAGA | -0.00025
AATGCCGG | 0.313
CTACATAA | -0.0441
GTTGCAAC | -0.013
CATAGGCC | 0.03
CCTGGAGC | -0.23
ACTATTAC | 0.0521
TATAACCA | -0.0806
CTAAAGTC | -0.0387
ACGGCCGG | 0.233
ACATTTGA | 0.0359
TAAGCGAA | 0.034
AATCTTGC | -0.0133
GCCAGCTA | -0.247
CGGGTGAA | 0.322
GGCCGGAC | 0.155
CCCGCGCG | 0.246
GAGAGAAA | -0.102
TAACCGTA | 0.137

Sequence | PBM E-score
GGACCCAA | 0.0817
GCTATTCA | -0.0111
ATCCAGGG | -0.143
AGTCCGGG | 0.254
CGTCGCCA | -0.267
CTGCCTAC | -0.153
ATTGATTG | -0.043
ATAAATTG | 0.0776
GCTTTAAC | -0.138
CTAGGATA | -0.0673
ACGCTATG | -0.215
CCATTCCC | 0.0811
CGTGAACG | -0.0933
AAAACGTA | -0.139
CGTTCACC | 0.0563
GACTTTGC | -0.0991
AAAACATA | 0.0282
AGTATCTC | -0.0258
AATACGTG | -0.144
GACGGATC | 0.265
CCGGGACA | 0.326
GCTGTACC | -0.123
AAGGTGCG | 0.0131
AGGATTAG | -0.11
CGCACGCC | -0.0661

Sequence | PBM E-score
ATTTGTTC | 0.152
ACTCTCTG | -0.262
GGTCGTAA | 0.0174
AGGCATAC | -0.127
ACATTCAA | -0.0161
AATAACCT | -0.0451
GAGTGTCC | -0.0438
GAGGTGAC | -0.046
CCATCATA | 0.0356
AGCTTACC | 0.0828
AATGGCCC | -0.0222
CGGAATGC | 0.364
ACGTCACG | -0.126
AAAGCAGT | -0.0701
GAGACAAC | -0.137
AACGAGGG | -0.23
CTTATCTC | 0.0713
CAGACCTG | -0.17
AGGTTAAT | -0.0737
ACTCAGAA | -0.0399
AATGCCAA | -0.176
ACCTGCCC | -0.0259
AACGGTCC | 0.129
AAACAAGC | -0.0198
GCTATACC | -0.0312

Sequence | PBM E-score
AGCACCTG | -0.24
CGCTCACC | -0.0562
AACTCTTA | -0.133
GGCCCGAC | 0.255
GACATCGA | -0.0709
ATGTATTA | -0.0132
CGCACCGC | -0.00306
ATCGAGGA | -0.14
ACACTCAA | -0.155
AAGCTACC | 0.0437
TACTCGCA | -0.0584
GTTACGGA | 0.177
TCGATCCA | -0.0806
ATGCGCGA | 0.106
ACTGGAGA | -0.129
ATCACAAG | -0.173
ATCAGCAA | -0.0425
AAAGACCC | 0.202
ATGCTTGA | -0.0882
GAAGGCTA | 0.0104
CTATGAAC | -0.214
AACACCAC | 0.0336
GCTGAAAA | -0.078
CGGATCCA | 0.36
AGTAGTCA | -0.295

Sequence | PBM E-score
AGAGGACT | -0.331
AGGTTTAC | -0.0584
CTCCCCTC | 0.0804
CACGACAA | -0.244
AAGTACAA | -0.00444
ATCCGATA | 0.448
GGGTATCA | 0.0389
CTCTTTTC | -0.0359
CTGAGAAA | -0.134
CTCCCGGA | 0.329
AAGATGCG | -0.0438
AACACGAA | 0.0454
GACGTGTA | -0.0863
CTGAATAC | -0.117
TCATGCAA | -0.0599
AAGTCGAT | -0.0507
AAATCTCC | -0.0269
CAGAAAAG | -0.108
CAGATAGG | -0.191
AGCGATAC | -0.116
AACTGTTC | 0.0591
ACGCGCAG | -0.305
GAAATCGC | 0.0354
CCCCCTAG | -0.264
ACTCATCT | -0.224

Sequence | PBM E-score
GATACCCC | 0.0107
CTGGAGAA | -0.238
CAATTCGG | 0.366
AATCCAGC | -0.0895
CCACACTA | 0.0411
CCTATGTC | -0.102
AGCCCCAA | -0.307
CACATCGA | -0.223
CAAAGTTG | -0.272
AAGAACAT | 0.0606
GTCCGAGA | 0.378
ATATTCGC | -0.034
AAGGGGAT | -0.091
AACTCACT | -0.214
CGGCTAGC | 0.28
TCCCCGCA | 0.205
CATTGGCA | -0.138
AGTCTTGG | -0.124
GGCCAAAC | 0.0582
AAGAGGCG | -0.131
AAGCACTT | 0.00958
AGAGCCAC | -0.148
CTGTAGGA | -0.0819
CGTGACCA | -0.155
GCCTAGCC | -0.0218

Sequence | PBM E-score
AGCTCATA | -0.0221
AGGGAGCA | -0.166
TTCGTAAA | -0.229
AGCATTGA | -0.164
ACACAACT | -0.21
AATAGTCG | -0.0847
GCGAGCCC | -0.0138
CCTAGATA | -0.284
CGGTAACA | 0.238
GCCCGTGA | -0.0199
AAGGTATT | 0.0562
CCCATGAC | -0.113
CAATAGTC | -0.159
ACCGGATA | 0.388
AAAACGTT | -0.0148
CCTCAAGC | -0.186
GTGGACTA | -0.0353
GGCAGGCA | 0.0342
CAAATAAA | -0.0731
GTGCGGGA | 0.218
ACGCGCCT | -0.199
AAGCGGTG | -0.196
AGTGCGCG | -0.0739
GTGATCAA | -0.212
ATGTTACC | 0.224

Sequence | PBM E-score
CTAATGAG | -0.094
CCGCACGA | 0.086
ATAGCACG | -0.208
TAATCCGA | 0.39
CTTAAAAG | -0.201
CGAGATAG | 0.00411
ACAAGGAG | -0.162
ATTCGCAG | -0.152
AAGTTAGA | -0.00247
ACAAGATG | -0.25
AACGGCTG | 0.0915
AAATTGGC | -0.0523
CCATACAC | 0.133
AAGCCACG | -0.0557
AGCGCGAG | -0.212
TCGAAGAA | -0.122
ACAGAAAT | -0.0747
ACCTGTAA | -0.252
CCCAGTAA | -0.0957
